Experimental findings from publication PMC6919601, “Identification of Plasmodium dipeptidyl aminopeptidase allosteric inhibitors by high throughput screening” (PLoS ONE, 2019) are described below.

About 230 (0.21%) of roughly 110,000 compounds showed an effect of 50% or more. Some of the results follow.
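Further: 30 min substrate incubation versus DMSO and 10 µM JCP410 controls.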

DPAP1, sequence (Q8IIJ9 whole entry, looked up): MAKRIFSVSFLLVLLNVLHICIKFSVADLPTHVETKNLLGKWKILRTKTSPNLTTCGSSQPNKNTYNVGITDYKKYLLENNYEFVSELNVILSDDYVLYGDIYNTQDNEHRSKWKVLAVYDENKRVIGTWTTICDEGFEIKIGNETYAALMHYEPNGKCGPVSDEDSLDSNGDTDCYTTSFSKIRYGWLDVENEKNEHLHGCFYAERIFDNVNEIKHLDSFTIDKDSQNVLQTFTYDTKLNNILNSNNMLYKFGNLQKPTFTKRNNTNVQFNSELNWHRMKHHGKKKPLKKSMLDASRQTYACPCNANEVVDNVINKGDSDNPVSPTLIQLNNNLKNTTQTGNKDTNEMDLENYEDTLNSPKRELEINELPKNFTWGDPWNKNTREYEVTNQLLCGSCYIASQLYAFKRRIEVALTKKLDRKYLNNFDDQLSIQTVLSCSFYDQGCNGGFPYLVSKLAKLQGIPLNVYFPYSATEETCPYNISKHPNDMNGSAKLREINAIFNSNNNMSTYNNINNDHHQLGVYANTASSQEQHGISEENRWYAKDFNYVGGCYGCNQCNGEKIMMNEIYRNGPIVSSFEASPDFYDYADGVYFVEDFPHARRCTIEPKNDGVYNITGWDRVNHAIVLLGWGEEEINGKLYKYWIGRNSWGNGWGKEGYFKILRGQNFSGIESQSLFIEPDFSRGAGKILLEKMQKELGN

The assay has as its target DPAP1 (Plasmodium falciparum, UniProt Q8IIJ9). The assay is described as follows: primary screen, percent inhibition; read by cleavage of a fluorogenic dipeptide substrate; higher = more effect of the substance. Details: species or system P. falciparum D10 trophozoite lysates; single well.
For the molecule `O=C(NCC1(c2ccccc2)CCOCC1)C1COc2ccccc2O1` (stereo not drawn), the “% Inhibition @ 10 uM” value came out at 1.84%.
In the case of `Cc1ccc2nc(-c3ccc(NC(=O)c4cccnc4)cc3)sc2c1`, the “% Inhibition @ 10 uM” value is recorded as -0.622%.
For the molecule `Cc1ccc(NC(=O)COc2ccccc2C)cc1O`, the “% Inhibition @ 10 uM” value is -2.74%.
Regarding `Fc1ccccc1-c1nnc(CN2CCN(Cc3ccccc3)CC2)o1`, the “% Inhibition @ 10 uM” value is given as -2.78%.
The same measure for `CCCCN1C(=O)NC(NC(=O)c2ccc(C(C)(C)C)cc2)(C(F)(F)F)C1=O` (stereo not drawn): 0.221%; for `COc1ccc(CCNc2ncc3c(n2)CC(c2cccs2)CC3=O)cc1` (stereo not drawn): 8.44%; for `COc1cc2cc(CO)c(O)nc2cc1OC`: 2.05%.
On to `CCCC(=O)Nc1nc2n(n1)C(c1ccc(Cl)cc1)C=C(c1ccccc1)N2` (stereo not drawn), for which the “% Inhibition @ 10 uM” value turned out to be 1.62%.
Turning to `CCOC(=O)N1CCN(C(=O)CSc2nc3c(c(=O)n2CCc2ccccc2)SCC3)CC1`, the “% Inhibition @ 10 uM” value was -2.55%.
Regarding `O=C(CCN1C(=O)c2ccccc2C1=O)N1CCc2ccccc2C1`, the “% Inhibition @ 10 uM” value stood at 3.04%.
For the molecule `COc1cc(CNc2ccc(F)c(Cl)c2)cc(OC)c1O`, the “% Inhibition @ 10 uM” value is given as -7.93%.
Regarding `CCOc1ccccc1CNC(=O)C(C)n1sc2ccccc2c1=O` (stereo not drawn), the “% Inhibition @ 10 uM” value was -3.43%.
The same measure for `Cc1ccc(C(C)C)c(OCC(=O)n2nc(C)cc2C)c1`: 4.74%; for `COc1ccc(C(=O)Nc2ccc(Cl)cc2C(=O)N2CCC(C)CC2)cc1`: 3.29%.
The same measure for `Cc1cc(-c2ccc(C)c(S(=O)(=O)N3CCC4(CC3)OCCO4)c2)on1`: -6.86%; for `Cc1ccnc(SC2CC(=O)N(c3ccc(-c4ccccc4)cc3)C2=O)n1` (stereo not drawn): -4.14%; for `COc1cccc(/C=C2\NC(=O)N(Cc3ccccc3)C2=O)c1O`: 2.01%.
The same measure for `N#CC1=C(N)C(C#N)(C#N)C(c2ccc[nH]2)C2CCCC=C12` (stereo not drawn): -2.15%; for `Cc1ccc2oc(C(=O)NCC(c3ccco3)N(C)C)c(C)c2c1` (stereo not drawn): 0.00706%; for `Nc1ncc(Cc2ccccc2Cl)s1`: 11.1%.
With `CCC1CCCN1Cn1cnc2c3ccccc3nc-2c1O` (stereo not drawn), the “% Inhibition @ 10 uM” value stood at 1.64%.
Regarding `CCOc1cc(CN2CCN(Cc3ccccc3)CC2)ccc1OC`, the “% Inhibition @ 10 uM” value is recorded as 1.48%.
The same measure for `Clc1cccc(CSc2nc3ncccc3o2)c1`: -5.22%; for `O=C(O)C1C2CCC(O2)C1C(=O)NCc1ccc2c(c1)OCO2` (stereo not drawn): 2.51%; for `CC(=O)O/N=C(\N)c1ccncc1`: 2.03%.
For `CCOC(=O)c1cccc(NC(=O)C2CCCCC2)c1`, the “% Inhibition @ 10 uM” value is on record as -0.318%.
The same measure for `Cc1ccc(/C=C/C(=O)c2c(O)nc(C)c3c2CCCC3)cc1`: -4.3%; for `Cc1ccc(-c2noc(CSc3nnc(-c4ccncc4)n3CC(C)C)n2)cc1`: -7.86%.
Regarding `COc1cc(C(=O)N2CCN(Cc3ccc(Cl)cc3)CC2)cc(OC)c1OC`, the “% Inhibition @ 10 uM” value is reported as -2.17%.
For the molecule `COc1cc(OC)c(OC)cc1/C=C1/NC(=O)N(Cc2ccccc2F)C1=O`, the “% Inhibition @ 10 uM” value is on record as -11.6%.
The same measure for `COc1ccc(N(C(C)C(=O)Nc2ccc(C)cc2)S(C)(=O)=O)cc1` (stereo not drawn): -3.18%.
The same measure for `COc1cc(C(=O)Nc2cccc(C)c2C)ccc1OC(F)F`: -2.85%; for `CCSC1=C(C#N)C(c2ccc(C)s2)CC(=O)N1` (stereo not drawn): 2.46%.
The same measure for `CCOc1ccc(C(=O)c2cnc3ccccc3c2N2CCCC2)cc1`: -2.18%.
On to `CN1C(=O)C(CC(=O)NC2CCCCC2)S/C1=N\c1ccccc1` (stereo not drawn), for which the “% Inhibition @ 10 uM” value is listed as -0.796%.
In the case of `C=CCN(CC=C)C(=O)c1c(-c2ccccc2Cl)noc1C`, the “% Inhibition @ 10 uM” value was -3.69%.
As for `CC(C(=O)N1CCCCC1)N(c1ccccc1)S(C)(=O)=O` (stereo not drawn), the “% Inhibition @ 10 uM” value was -2.28%.
The same measure for `O=C(Nc1cccnc1Cl)C1CC(c2ccccc2F)=NO1` (stereo not drawn): -0.431%; for `CCN1CCN(c2cc(=O)n3c(n2)SCCC3)CC1`: -2.92%.
The same measure for `COc1ccccc1NC(=O)c1c(NC(=O)C(C)(C)C)sc2c1CCC2`: -0.46%.
The same measure for `COc1cc(OC)cc(-c2cc(N)n(S(=O)(=O)c3cccc4nsnc34)n2)c1`: -3.95%.
`CCOC(=O)c1c(C)nc(C)c(C(=O)OCC)c1-c1ccc(O)c(OC)c1`: the “% Inhibition @ 10 uM” value was -4.04%.
With `COC(=O)C1=CN(C(C)C)C=C(C(=O)OC)C1c1ccc(OCc2ccccc2)c(OC)c1`, the “% Inhibition @ 10 uM” value was 3.45%.
The same measure for `Cc1ccccc1N(CC(=O)N1CCC(C)CC1)S(=O)(=O)c1ccccc1`: -2.6%; for `COc1ccccc1NC(=O)c1ccco1`: -1.93%; for `O=C(NCc1ccccc1)c1ccc(CNc2c(N3CCCC3)c(=O)c2=O)cc1`: 5.91%.
As for `COCCCNC(=O)c1cc(-c2ccncc2)nc2ccc(S(=O)(=O)N3CCOCC3)cc12`, the “% Inhibition @ 10 uM” value was -6.4%.
Turning to `COC(=O)c1c(NC(=O)c2ccccc2C)sc(C(=O)Nc2ccc(OC)cc2)c1C`, the “% Inhibition @ 10 uM” value is listed as 4.64%.
The same measure for `CCCCNC(=O)CCCc1nnc2n(C)c(=O)c3sccc3n12`: -4.58%; for `Cc1nc2cccnc2[nH]1`: 0.708%.
The same measure for `CC1CN(c2ccc(Cl)cc2[N+](=O)[O-])CCN1` (stereo not drawn): -0.216%; for `CN(C)c1ccc(C(=O)CC2(O)C(=O)N(Cc3ccccc3)c3ccccc32)cc1` (stereo not drawn): -1.99%; for `Cc1occc1C(=O)NC1CCCCCCC1`: -0.622%.
The same measure for `Cc1cccc(-c2noc(CN(C(=O)C(C)Oc3cccc(Cl)c3)C(C)C)n2)c1` (stereo not drawn): -1.24%; for `COc1ccc(C(=O)Nc2cc3nn(-c4ccc(OC)cc4)nc3cc2C)cc1`: -3.28%.
In the case of `Cc1ccccc1OCCCN1CCCCC1`, the “% Inhibition @ 10 uM” value is given as 5.29%.
The same measure for `Nc1nonc1-c1nc2ccccc2n1Cc1nc(O)c2ccccc2n1`: -1.11%; for `CC1CC(C)CN(CCCNC(=O)Cn2cnc3onc(-c4ccc(F)cc4)c3c2=O)C1` (stereo not drawn): -1.05%; for `Cc1nc2c(c(C)nn2-c2ccccc2)c(C)c1Cl`: -1.69%.
`CCOCCCNC(=O)CN1C(=O)CSc2c1c(C)nn2-c1ccccc1`: the “% Inhibition @ 10 uM” value is given as 1.46%.
The same measure for `CC(=O)Nc1cccc(OCC(=O)Nc2c(C)cc(Br)cc2C)c1`: 3.9%; for `Cc1cc(C)cc(NC(=O)COc2ccc(S(=O)(=O)NC(C)C)cc2)c1`: 0.83%; for `Cc1onc(-c2ccccc2Cl)c1C(=O)Nc1nc[nH]n1`: 0.389%.
The same measure for `CC(=O)N1N=C(c2ccccc2O)CC1c1ccc(Cl)cc1Cl` (stereo not drawn): -1.43%.
The same measure for `CCC(C(=O)N1CCCCCC1)n1nc(C)n2c(cc3sccc32)c1=O` (stereo not drawn): 1.8%; for `CCOc1cc(C(=O)N2CCN(c3ccccc3F)CC2)cc(OCC)c1OCC`: 0.727%.
